Experimental data published in the supplement of paper PMC11417369.
± gives the standard deviation of the averaged measurements. Some of the results follow.

System: PfAP2-I AP2 domain 3 (GST-tagged)
Experiment: gcPBM binding intensity (ln(normalized median fluorescence intensity)); higher = stronger DNA binding
Procedure, shortened: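 After 1 h on an Agilent 4 × 180k array of primer-extended double-stranded 36-bp intergenic genomic probes and negative controls, bound GST-tagged P. falciparum DNA-binding domains were detected with Alexa488 anti-GST antibody and scanned at 488 nm. The domains had been expressed in E. coli, and binding took place in 1× PBS with 1% milk, 0.2 mg/ml BSA, 0.5% salmon testes DNA and 0.03% Triton X-100. Binding intensity is the highest Masliner-normalised natural-log median intensity across replicate spots of either probe orientation.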

Sequence | gcPBM binding intensity (ln)
ATTCTATTATCCTTTGCACACAAAATAAATGAAAAA [CACACA_site3030] | 8.59 ± 0.27
TTTTAAAAGGTAAAATGTACATATATAATATATACA [XGTACX_site1222] | 7.49 ± 0.52
TATATATTATATATTTGTACATATATATAAAAACTT [XGTACX_site449] | 7.68 ± 0.2
CCTTCCTTGAATTTTACATGCAAAAAATTATAAAAC [TGCATGCA_site663] | 9.42 ± 0.62
ATTTTTATTTTTTTTGTGCACATTTTCATTTTCTAT [GTGCAC_site9580] | 10.4 ± 0.47
TTTTTTCAATATTATATCCAAAAATATTTGTAAATA [TGCATGCA_negctrl_site596] | 7.39 ± 0.43
TTATTAAAATATACATTTGAAAGTAATCTTATTTAA [XGTACX_negctrl_site431] | 7.15 ± 0.45
ATATTGAAAATTTGAAGTACATCTAAATATATTATT [XGTACX_site7817] | 7.71 ± 0.23
TTTATAATAAAAAATACATGCAGTTATATATAATAA [TGCATGCA_site654] | 8 ± 0.61
ATAATGTGTTTGGTATTCTTGATAGATAGTTTTGTG [CACACA_negctrl_site68] | 7.68 ± 0.69
ATCCGTGTCTGAAATACACACATGACAATGTGAATG [CACACA_site6556] | 7.82 ± 0.64
TATATATAAATAAACACACACAAATATAATAAAAAA [CACACA_site3526] | 7.92 ± 0.8
TATTTTACATAAAAGAAAAAAAAAAAAAAAAAAAAA [CACACA_negctrl_site1460] | 8.12 ± 0.94
TTTTGTTTAGTGTATTGTACAATATATCTTTATTTT [XGTACX_site5163] | 7.95 ± 0.69
AGTCCTTACACATATATTAAATATGTGTATATATAT [XGTACX_negctrl_site336] | 8.38 ± 0.5
TATTAATACGGACACACACACACACTAGATAAAATA [CACACA_site4295] | 8.31 ± 0.26
AAAAAAAAAAAAAAAAGTACATATATATATATAATT [XGTACX_site4437] | 8.49 ± 0.4
TATTTAAATACTGACGCATGCATAAGGAGTAATAGT [TGCATGCA_site465] | 8.4 ± 0.61
AAACATTTATGAAGGTGTACAAAAATGAATTAAAAA [XGTACX_site7035] | 7.92 ± 0.5

Sequence | gcPBM binding intensity (ln)
TTTTTTTTTTTTTTTTGTACTTATAAAATAACATGT [XGTACX_site134] | 8.13 ± 0.82
TAATACTTAGAGAAAAGTACGTATGAACTTATGTAA [XGTACX_site5504] | 7.76 ± 0.27
AAGGCATGACTATCTGCACACATAAAAATAAGAAAT [CACACA_site8180] | 8.62 ± 0.39
AATTTTTTTTTTTTGTGTCCTCATAATTCTTCATTC [XGTACX_site5042] | 7.93 ± 0.45
TAAAAAAAAATATAATGTACGTATAAATATATATTA [XGTACX_site5085] | 7.75 ± 0.39
TAAACATAATAATATACACACATATATTGATATATA [CACACA_site2144] | 7.29 ± 0.56
TATATTTATTTAAAAACATGCATTTTTTTTTTCCGT [TGCATGCA_site44] | 7.92 ± 0.61
TTTTTTTTTTTTACATGTACTTATTTTAAATATAAA [XGTACX_site805] | 8.04 ± 0.57
ATTTTTTTGGTAATTTGTACATAATATATACATAAT [XGTACX_site3742] | 8.13 ± 0.57
AAAATTAAAACCTACACACACATTTAAAAAAAAAAA [CACACA_site3068] | 7.83 ± 0.6
TATATTATAGGTTGTGTACACATATTATATAGTACT [CACACA_site4583] | 8.14 ± 0.24
ATATATTTATAGACTTGTACATATATATACGATATA [XGTACX_site8890] | 7.6 ± 0.42
TAACTATTATAAAAATGTACAAATGAAAATATTTTT [XGTACX_site1438] | 7.76 ± 0.52
TACCAAAAAAAAAAAAATAAAAATAAAAAAAAAAAT [CACACA_negctrl_site1714] | 7.45 ± 0.68
AAAATAAAAATAAAAGCACACATAAATATATATATA [CACACA_site8409] | 9.1 ± 0.085
TAAAAGTTTTTATACATACACACCTATAAATTAAGT [CACACA_site2446] | 7.87 ± 0.51
CTTTATTATAAGATTACACACATGTCTTATAATTTA [CACACA_site5715] | 7.7 ± 0.58
TTCCTGTTAATTACAACACACAATTTTTATTTTATG [CACACA_site779] | 8.31 ± 0.24
TAATTAAATACATTAACACACACACTAATATATACA [CACACA_site8938] | 8.01 ± 0.35

Sequence | gcPBM binding intensity (ln)
ATATTTTTATATAATGAACACACATATTATATCATT [CACACA_site8446] | 7.71 ± 0.54
TAAAAGGATACATATACACACATATATATATATATA [CACACA_site2791] | 9.45 ± 0.67
TTCTTCAACAAAAAAATAAAAATAAAATAATAAAAA [GTGCAC_negctrl_site619] | 7.68 ± 0.52
TTTAAAAAATTATATTCACACACATACACATATATA [CACACA_site8076] | 7.75 ± 0.3
ATAAATCGATAAAATATATGCTACATGAATAAATAA [XGTACX_negctrl_site604] | 7.66 ± 0.55
AAAATATGTTAATATTGTACTTAAATAAAAAAAATA [XGTACX_site7152] | 7.74 ± 0.46
ATTCTTAAAATAAAATGTACGAAAAAAAAAAAAAAA [XGTACX_site1657] | 8.12 ± 0.71
ATACACATAACATATATATATATATATATATATATC [CACACA_negctrl_site278] | 8.48 ± 0.35
TATATATATATAAACGCATGTAATTTATACACACAT [TGCATGCA_site946] | 9.21 ± 0.36
ATCTTTCCTTTTGCATGTACATATGGAAATACTTTT [XGTACX_site6995] | 8.31 ± 0.7
ATAATTAAGTTATGTGTGCACTGTTAAAAATAAATG | 10.5 ± 0.25
TTTTATGATATTTACACACAAACGTGAGATAGCTCA [CACACA_site2311] | 7.72 ± 0.73
AATATAATATCTATAATATAAAAAAAACAAAAAAAA [CACACA_negctrl_site875] | 7.5 ± 0.53
CGACTTTTAAAATATACACACATATAAATAAATATA [CACACA_site6523] | 7.59 ± 0.35
TTACAATATAATAAATGTACATATAACAAATATATA [XGTACX_site2199] | 7.67 ± 0.32
TTTTTTTTTTTTTGTAGTACATACTATTTTATTAAT [XGTACX_site950] | 8.01 ± 0.67
AGAATTATATACACAAGTACATAATGACATATATAT [XGTACX_site5617] | 7.71 ± 0.49
TAGATGTATTTTTAAAGTACTTTTTAATATATAATC [XGTACX_site1431] | 7.66 ± 0.3
